Laboratory results taken from the supplement of paper PMC3334620.
The full ranking holds about 33,000 sequences; the median of “E-score (-0.5 to 0.5)” is about -0.04, and the highest 2% start at about 0.36. The list shows a part of the results.

target: T1, Hmlalpha2 (UniProt P0CY09); assay: PBM E-score (8-mer binding enrichment) (E-score (-0.5 to 0.5)); higher = stronger / more preferred TF binding; most listed sequences are background and not binding sites; conditions: protein concentration: 200 nM; construct: GST-full length
T1 sequence: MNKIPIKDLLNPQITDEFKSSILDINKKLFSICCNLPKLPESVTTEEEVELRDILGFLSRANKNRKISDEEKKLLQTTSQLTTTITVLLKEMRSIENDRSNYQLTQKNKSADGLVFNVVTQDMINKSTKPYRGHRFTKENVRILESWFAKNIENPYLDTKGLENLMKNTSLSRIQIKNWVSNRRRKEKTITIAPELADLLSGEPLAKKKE
How it was run: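 E-scores (a modified Wilcoxon-Mann-Whitney statistic) were assigned by the Universal PBM Analysis Suite to every ungapped eight-base word pooled with its reverse complement. The input came from universal all-10-mer Agilent arrays made double-stranded by primer extension and probed with GST-tagged yeast transcription factors at about 100-200 nM. Fluorescent anti-GST detected bound protein, and masliner normalised the scans.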

Row | Sequence | PBM E-score
1 | CGTCTCGA | 0.0152
2 | GGCGACAC | -0.041
3 | AATGATTA | 0.132
4 | AAGGATCC | -0.175
5 | GCGTCTTA | 0.00542
6 | GGCTGAAC | -0.147
7 | ATGAAATG | -0.19
8 | CCGACACC | -0.273
9 | AGGAAGTG | -0.115
10 | GTACGTGA | 0.108
11 | ACGATGCC | -0.219
12 | ATCAACAA | 0.306
13 | ATAAGTTG | 0.0554
14 | CTAAAGCC | -0.19
15 | ACGACGTA | 0.308
16 | GCGCAACA | 0.0852
17 | CCGGTAAC | 0.138
18 | AACTACCT | 0.178
19 | ATACGGTG | -0.0688
20 | CGTGTTAG | 0.431
21 | GCATGTTA | 0.464
22 | GAAAGGTC | -0.0765
23 | ACTTGACG | 0.197
24 | ACCCTCTG | -0.174
25 | AAGGCCTA | -0.0727

Row | Sequence | PBM E-score
26 | CTTTGCGA | -0.11
27 | GGTTGATA | 0.0269
28 | AATTGTGT | 0.338
29 | GAGAGGCC | -0.307
30 | CTAGTTTA | 0.0168
31 | CATTTACA | 0.442
32 | CGCGCTTA | 0.21
33 | AAAGTGGA | -0.216
34 | ACTCATAT | -0.0255
35 | AGGACGAG | -0.101
36 | ATACTTTA | 0.244
37 | ATCTCTAG | -0.152
38 | CCGTCCCC | -0.359
39 | CTGCATAC | 0.0722
40 | TAGACAAA | 0.124
41 | CCAGGCCA | -0.322
42 | AATGTTCG | -0.0319
43 | AACTCAAT | -0.0255
44 | AACAATGG | 0.0641
45 | GCGAATAC | 0.163
46 | CGGTACCC | -0.269
47 | CCGCATGC | -0.23
48 | AACTGGCA | -0.107
49 | CCCAGCAG | -0.134
50 | CAAGTTAA | 0.271

Row | Sequence | PBM E-score
51 | TTCCCCAA | -0.0934
52 | ACTATACT | 0.076
53 | CAGCATCA | -0.0056
54 | GCCATTTA | 0.00861
55 | TATTTTGA | 0.0855
56 | TCGTCCAA | -0.0824
57 | CAAAGGCA | 0.0855
58 | GCATGCCA | -0.181
59 | ATGGGAAT | 0.0681
60 | CACGCTTC | 0.0567
61 | CTGTTCAA | 0.0833
62 | AAATAGCT | -0.128
63 | GTGCGCTA | -0.121
64 | CCCATTTC | -0.166
65 | AAACGACT | -0.0906
66 | CTATCATA | -0.0455
67 | GAAGTGAC | 0.0339
68 | CCACATGA | 0.109
69 | CCCAATTA | -0.0735
70 | CGAAGGGC | -0.207
71 | CTCACGTC | -0.193
72 | CGGGACTA | -0.208
73 | GAAACGAA | -0.0129
74 | AAAATATG | 0.0339
75 | ACGTTTAG | 0.198

Row | Sequence | PBM E-score
76 | GCCAATTA | 0.0643
77 | ATGCTTCG | 0.0186
78 | CGTGTGTC | 0.2
79 | ACAGGATC | -0.0729
80 | CGGGCTCC | -0.272
81 | AAATGATC | -0.178
82 | CTACAGGA | 0.118
83 | CAGGACCG | -0.226
84 | GGCCTTAC | -0.0714
85 | AAAGATAA | 0.114
86 | CGGGCGGA | -0.245
87 | GGATGCGA | -0.247
88 | CTTATCAC | 0.033
89 | AGGAAACT | -0.0759
90 | ATTCCATC | -0.0617
91 | ACCCTATA | -0.286
92 | ATGATAGC | 0.166
93 | AAAGCCCA | -0.1
94 | GAAAGTCA | 0.119
95 | AAGAATTA | 0.102
96 | ACCCGGAA | -0.0305
97 | CATCCCCG | -0.276
98 | CTGAAGGC | -0.294
99 | GTCTAGAA | -0.0283
100 | TATTTAGA | 0.28

Row | Sequence | PBM E-score
101 | CAAAATTC | 0.15
102 | ATCTGGTC | -0.0992
103 | TGATGCAA | 0.0282
104 | GACAAACA | 0.136
105 | TACAAGCA | 0.313
106 | CCATTGTA | 0.222
107 | TGCCGACA | -0.0586
108 | AATGCACT | 0.184
109 | CCCGAAAC | -0.0665
110 | ACGTATAT | 0.279
111 | AATTAACG | 0.289
112 | GCGTTAGA | 0.00665
113 | AACGCGAC | 0.284
114 | ATTACCTC | 0.0281
115 | ATGCAAAG | 0.114
116 | GGGCTTCA | -0.101
117 | CAAACGCG | 0.255
118 | ATAGTCAG | 0.047
119 | GCACCAGA | -0.146
120 | AGCCGCAA | -0.353
121 | CCGCTTTC | -0.17
122 | ACAATAAT | 0.113
123 | CGACCTCG | -0.106
124 | ACTGAAGC | 0.0129
125 | CACTCCTG | -0.0169

Row | Sequence | PBM E-score
126 | TCACGAGA | -0.115
127 | GTAAACAA | 0.37
128 | CGCCATCC | -0.192
129 | ATGGGAAA | -0.15
130 | ATAGCTCC | -0.221
131 | CAAAAGTC | -0.0262
132 | CACTCCAA | -0.0941
133 | GCTATACA | 0.203
134 | GTGTCTTA | 0.243
135 | ACCATAGT | -0.117
136 | GACTCGGC | -0.156
137 | AGTACGCG | 0.308
138 | GCGTAATA | 0.373
139 | GAATAGTC | -0.118
140 | TATCCCCA | -0.165
141 | GTTCAATA | 0.0286
142 | CTTTCTTA | 0.0716
143 | AAGATCCA | -0.0804
144 | CTTCCGGA | -0.134
145 | AACAAGTA | 0.172
146 | CCCTCCCA | -0.177
147 | AACCTCTG | -0.0402
148 | TGGCGCCA | -0.163
149 | ACTGGGTC | -0.288
150 | ATGGTATA | 0.178

Row | Sequence | PBM E-score
151 | GGAAAGAA | -0.00906
152 | CGGGGTCA | -0.273
153 | TGCGCCAA | -0.216
154 | CCTGGGAC | -0.194
155 | AGTATACG | 0.128
156 | AATTTACA | 0.431
157 | CCCCTTAC | -0.024
158 | ACTACGCC | -0.187
159 | CAATAGCA | -0.0841
160 | ATAACATC | 0.327
161 | GCTTACGA | 0.0137
162 | AAAGAAAA | 0.0731
163 | CGTCTCAA | 0.0229
164 | ATTCTAAC | 0.138
165 | GTAATAGA | 0.257
166 | ACATTCAG | -0.00015
167 | AAATAAAA | 0.142
168 | AGCCAGTA | -0.229
169 | TAGATATA | 0.0377
170 | AATAACCA | 0.103
171 | AATACAAC | 0.315
172 | GAGGAATC | -0.207
173 | CTTACCAC | 0.0369
174 | ATGATTAC | 0.326
175 | ATATAAAC | 0.235

Row | Sequence | PBM E-score
176 | CGCACGGC | -0.138
177 | GGGTTTAA | 0.166
178 | AGTCGGCC | -0.279
179 | GTTGCGAA | 0.0227
180 | TCGGGCAA | -0.154
181 | GTCGGTAA | 0.0853
182 | AGACAGCG | -0.0777
183 | TACAGCTA | -0.0203
184 | CGACTTGC | -0.197
185 | GTGAGGAA | -0.213
186 | ACAATGAT | 0.128
187 | CGTGAAAC | 0.0577
188 | ACGCAAAT | 0.162
189 | GACATTAA | 0.18
190 | CATGAGGA | -0.0501
191 | CCCCACGA | -0.129
192 | TCCACGAA | 0.0882
193 | AGCTCCTC | -0.154
194 | CCGTGCCC | -0.17
195 | AAACGAGT | 0.135
196 | ATGTTGAA | 0.395
197 | CTCAATGC | -0.0878
198 | AGTTTCAA | 0.0268
199 | AACGATGC | -0.138
200 | CCCCTCCA | -0.158

Row | Sequence | PBM E-score
201 | AGATTCCC | -0.244
202 | CTATAACA | 0.335
203 | ACGATGGG | -0.139
204 | CCTGGGGC | -0.332
205 | AACTGCTC | -0.0975
206 | CGCTCTCC | -0.231
207 | ACATGAAT | 0.371
208 | CATCTGCC | -0.139
209 | CATTTCAC | 0.0402
210 | TAATCAGA | -0.00349
211 | CTCCGCAC | -0.221
212 | GCCCTCAC | -0.253
213 | CCAGTCCG | -0.223
214 | CCATTATC | 0.0776
215 | AACAGATC | 0.142
216 | ACGCGCCC | 0.162
217 | GTTGGCTA | -0.121
218 | GGGTTACC | -0.116
219 | AATACAGG | 0.2
